Measurements from PubChem BioAssay AID504832 (National Center for Advancing Translational Sciences (NCATS), 2011).
Out of some 310,000 compounds screened, about 18,000 (5.8%) were called active. The inconclusive results got no clear call from the source; some entries with a clear call stand among them for comparison. The call rests on the fitted dose curve; in most records, active means well fitted inhibition curve with a large enough effect; inconclusive means small, poorly fitted or top-dose-only effect, or another doubt; inactive means no such curve, though single readings can be large or run the other way. Potencies of inconclusive entries are left out as doubtful fits.

Experiment: Primary qHTS for delayed death inhibitors of the malarial parasite plastid, 48 hour incubation
Details: P. falciparum luciferase growth in erythrocytes; series mostly up to 28.7 µM; activity change, negative = inhibition: at the top concentration
Procedure, shortened: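 In quantitative HTS format, infected erythrocytes bearing luciferase-reporter parasites were treated for a single generation at 37 C. Luminescence after adding detection reagent served as the growth measure.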
On the % scale 0 is the no-effect control and ±100 the full control effect; potency means the concentration at half of the fitted maximal effect; tags describe the fitted curve by direction and shape.

| SMILES | activity change, negative = inhibition | Potency |
| --- | --- | --- |
| CCOc1ccccc1N1C(=O)CC(=O)NC1=O | inactive: 23% |  |
| Cc1ccc(-c2ccc(C(=O)NCc3ccc(Cl)cc3)o2)c2ccccc12 |  | inconclusive [inhibitor, single point] |
| S=c1[nH]c(-c2ccccc2)cn1/N=C/c1cccs1 |  | inconclusive [inhibitor, partial curve, poor fit] |
| Cc1ccc(C(=O)N/N=C\c2cc(Br)c(Br)o2)cn1 |  | inconclusive [inhibitor, single point] |
| O=C(COc1ccc(S(=O)(=O)N2CCCCC2)cc1Cl)N1CCCC1 |  | inconclusive [inhibitor, partial curve, poor fit] |
| CCOC(=O)N1CCN(Cc2nc(N)nc(Nc3ccc(Oc4ccccc4)cc3)n2)CC1 |  | inconclusive [inhibitor, single point] |
| Cc1cc(C)nc(SCc2nnc(SCC(=O)N3CCOCC3)o2)n1 | inactive: 28.8% |  |
| COc1ccccc1C(=O)N/N=C(\C)CC(=O)Nc1ccccc1NC(C)=O | inactive: 4.14% |  |
| Clc1ccc(SCc2cn3ccsc3n2)cc1 | inactive: -19.6% |  |
| O=C(NC(=S)Nc1ccc(Br)cn1)c1cccnc1 |  | inconclusive [inhibitor, single point] |
| O=S(=O)(c1cccs1)N1CCCc2ccccc21 |  | inconclusive [inhibitor, partial curve, poor fit] |
| CCC1(c2ccccc2)NC(=O)N(CC(=O)Nc2ccccc2N2CCCC2)C1=O (stereo not given) | inactive: -18.1% |  |
| CCOC(=O)N1CCN(C2CCCN(C(=O)c3ccccc3C(F)(F)F)C2)CC1 (stereo not given) |  | inconclusive [inhibitor, single point] |
| COc1ccc(/C=N/NC(=O)c2cc3c(OC)ccc(OC)c3[nH]2)cc1O |  | active: 3.7 µM |
| CN1CCN(S(=O)(=O)c2ccc(Nc3ccc(F)cc3)nc2)CC1 |  | inconclusive [inhibitor, single point] |
| CCCCCCCCOc1ccccc1C(=O)Nc1ccc(C(=O)OCC[N+](C)(CC)CC)cc1 |  | active: 15.1 µM |
| O=C(NCCCn1ccnc1)C(=O)NCC(c1ccco1)N1CCN(c2ccc(F)cc2)CC1 (stereo not given) |  | inconclusive [inhibitor, full curve, poor fit] |
| O=C(Cn1ncc2c3ccccc3n(Cc3cccc(Cl)c3)c2c1=O)NCC1CCCO1 (stereo not given) |  | inconclusive [inhibitor, partial curve] |
| CSc1ccc(C2C(C#N)=C(N)Oc3c2ccc(=O)c2c(C)oc(C)c32)cc1 (stereo not given) |  | inconclusive [inhibitor, single point] |
| CCOc1cccc(CN2CCCC(C(=O)Nc3ccc(-c4ccn[nH]4)cc3)C2)c1O (stereo not given) |  | inconclusive [inhibitor, single point] |
| COc1ccccc1CN1CC(C(=O)NCc2cc(F)cc(C(F)(F)F)c2)CCC1=O (stereo not given) | inactive: -19.1% |  |
| c1cncc(-c2nc(N3CCCCCC3)c3ccccc3n2)c1 |  | active: 0.465 µM |
| Cc1ccc(NC(=O)COC(=O)C2(C)CC2(Cl)Cl)cc1S(=O)(=O)N1CCOCC1 (stereo not given) |  | inconclusive [inhibitor, partial curve, poor fit] |
| c1ccc2[nH]c(NN=C3CCCCCC3)nc2c1 |  | inconclusive [inhibitor, single point] |

| SMILES | activity change, negative = inhibition | Potency |
| --- | --- | --- |
| O=C(N/N=C/c1ccc(-c2ccccc2Cl)o1)c1ccccc1 |  | inconclusive [inhibitor, single point] |
| C=CCn1cc(C(C)=O)c(=O)[nH]c1=O | inactive: 399% |  |
| Cc1ccc(N(CCC(=O)Nc2nnc(C3CC3)s2)S(=O)(=O)c2ccccc2)cc1 |  | inconclusive [inhibitor, partial curve, poor fit] |
| CC(NC(=O)c1cccc(S(=O)(=O)N2CCCCCC2)c1)c1ccccc1 (stereo not given) |  | inconclusive [inhibitor, single point] |
| COC(=O)c1ccc2[nH]c([C@H](C)O)c([C@H](C)O)c2c1 |  | inconclusive [inhibitor, full curve, poor fit] |
| COc1ccc(C(=O)NC(=S)Nc2ccc(N3CCOCC3)c(Cl)c2)cc1[N+](=O)[O-] |  | inconclusive [inhibitor, single point] |
| CSc1ccc(CCNC(=O)CCc2nnc3ccc(N4CCC5(CC4)OCCO5)nn23)cc1 |  | inconclusive [inhibitor, partial curve] |
| COc1ccc(NCC(=O)N/N=C/c2cc([N+](=O)[O-])ccc2N2CCCC2)cc1 | inactive: 1.91% |  |
| CCCCN(C(=O)c1ccccc1OCc1ccc(F)cc1)c1c(N)n(CC(C)C)c(=O)[nH]c1=O |  | inconclusive [inhibitor, single point] |
| CN(C)CCC1c2ccc(Cl)cc2CCc2cccnc21 (stereo not given) (tested in a mixture with another compound) |  | inconclusive [inhibitor, partial curve] |
| O=C(NC(Cc1ccccc1)C(=O)O)/C(=C/c1ccco1)NC(=O)c1cccc(Br)c1 (stereo not given) | inactive: 30.5% |  |
| CCCCn1c(N)c(N(CC)C(=O)c2cc(CC)c(C)s2)c(=O)[nH]c1=O | inactive: -21.4% |  |
| O=C(NCC1CC1)c1ccc(Nc2nc3ccc(Br)cc3[nH]2)cc1 |  | inconclusive [inhibitor, single point] |
| O=C(CCNC(=O)c1ccccc1)Oc1ccc([N+](=O)[O-])cc1 | inactive: 20.2% |  |
| COC(=O)c1sccc1NC(=S)Nc1cc(C)ccc1OC |  | inconclusive [inhibitor, full curve, poor fit] |
| O=C(c1ccccc1Cl)N1N=C(c2cccs2)CC1c1cccc(O)c1 (stereo not given) |  | inconclusive [inhibitor, single point] |
| CCCC(C)C(=O)Nc1ncc(S(=O)(=O)c2ccc([N+](=O)[O-])cc2)s1 (stereo not given) |  | active: 1.65 µM |
| CCOc1cc(C#N)ccc1OCC(=O)N1CCN(C(=O)c2cccs2)CC1 |  | inconclusive [inhibitor, single point] |
| O=S(=O)(c1ccc(F)cc1)c1nc(-c2ccc(F)cc2)oc1NCCN1CCOCC1 |  | inconclusive [inhibitor, single point] |
| O=C(NCc1cccs1)C1CCCN(c2nc3ccccc3o2)C1 (stereo not given) |  | inconclusive [inhibitor, partial curve, poor fit] |
| CCC(=O)NC(=S)NNC(=O)COc1ccc(Br)cc1 |  | inconclusive [inhibitor, single point] |
| O=C(c1noc2c1CCCC2)N1CCC(CO)(Cc2ccccc2Cl)CC1 |  | inconclusive [inhibitor, partial curve, poor fit] |
| CCCCn1c(/N=C/c2cc(OC)ccc2O)nc2ccccc21 | inactive: -9.01% |  |
| O=C1CC(N2CCN(C/C=C/c3ccccc3)CC2)C(=O)N1Cc1ccc(N2CCCC2=O)cc1 (stereo not given) |  | inconclusive [inhibitor, single point] |

| SMILES | activity change, negative = inhibition | Potency |
| --- | --- | --- |
| Cc1nn(CC(=O)N2CCN(C34CC5CC(CC(C5)C3)C4)CC2)c(C)c1[N+](=O)[O-] | inactive: 0.761% |  |
| CCCCn1c(=O)c(C(=O)Nc2ccccc2N)c(O)c2ccccc21 | inactive: -12.4% |  |
| COC(=O)c1ccccc1NC(=O)CSc1nc(C)cc(C)n1 | inactive: 18.8% |  |
| CSc1nc2c(c(=O)[nH]c(=O)n2C)n1CCCc1ccccc1 | inactive: 3.93% |  |
| Cc1cc(Nc2ccc(O)cc2)ccc1N |  | inconclusive [inhibitor, single point] |
| CCc1nnc(NC(=O)CSc2nc3cc4c(cc3cc2CC)OCCO4)s1 |  | inconclusive [inhibitor, partial curve, poor fit] |
| CCN(C(=O)COc1ncnc2sccc12)c1ccccc1 | inactive: 0.237% |  |
| CC(C)(C)C1CCc2onc(C(=O)NC3CCCC3)c2C1 (stereo not given) |  | inconclusive [inhibitor, partial curve, poor fit] |
| CCN1CCN(c2cc(C)c3cc(NC(=O)CCC(=O)Nc4ccc(OC)c(OC)c4)ccc3n2)CC1 |  | inconclusive [inhibitor, single point] |
| Cc1ccccc1-n1ncc2c1CC(C)(C)CC2NC(=O)CCN1CCCCC1=O (stereo not given) |  | inconclusive [inhibitor, partial curve, poor fit] |
| CCN(CC)c1ccc(/C=C(/C#N)c2nc3ccc(C)cc3[nH]2)c(OC(C)C)c1 |  | inconclusive [inhibitor, partial curve, poor fit] |
| CCCOC(=O)c1[nH]c2c(c1C)C(=O)CC(c1cc(OC)c(OC)c(OC)c1)C2 (stereo not given) |  | active: 1.65 µM |
| O=S(=O)(NCc1ccccc1)c1ccccc1Br | inactive: -4.74% |  |
| O=C1C(Cl)=C(N2CCCCC2)C(=O)C(Cl)=C1c1cnc(N2CCCCC2)s1 |  | active: 10.4 µM |
| COc1cc(/C=N/Nc2nncn2N)ccc1OCc1c(C)no[n+]1[O-] |  | inconclusive [inhibitor, single point] |
| Nc1ccc2nc(-c3ccccc3)c(-c3ccccc3)nc2c1 | inactive: -1.13% |  |
| COC(C(=O)N1CCC(n2nccc2NC(=O)C2CC2)CC1)c1ccccc1 (stereo not given) | inactive: -6.39% |  |
| Cc1ccc(C(C(=O)NC2CCCCC2)N(CCC(C)C)C(=O)CNC(=O)c2ccco2)o1 (stereo not given) |  | inconclusive [inhibitor, single point] |
| O=c1c2ccccc2c(-c2ccccc2)nn1-c1cc(Cl)ccc1[N+](=O)[O-] |  | active: 8.28 µM |
| Cc1ccc(C(=O)C(OC(=O)c2cnccn2)c2ccccc2)cc1 (stereo not given) | inactive: 3.32% |  |
| COc1ccc(CCNC(=O)CCC(=O)Nc2nnc(C(C)C)s2)cc1OC | inactive: -7.91% |  |
| OC(CNC1CCCC1)COc1ccc(Cl)cc1 (stereo not given) |  | active: 14.7 µM |
